From PubChem BioAssay AID1963576 (National Center for Advancing Translational Sciences (NCATS), 2024)
Out of some 46,000 compounds screened, about 60 (0.1%) were called active. Roughly 3% stayed inconclusive and do not appear here. The call rests on the fitted dose curve; in most records, active means well fitted inhibition curve with a large enough effect; inconclusive means small, poorly fitted or top-dose-only effect; inactive means no such curve, though single readings can be large or run the other way. This is one part of the list.

Assay: Primary qHTS assay for Inhibitors of ovarian cancer metastasis using an organotypic tumor microenvironment (TME) model. Further: nearly all actives have a fitted effect of over 65% in size.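 On activity change, negative = inhibition: plate controls were DMSO wells for no effect and tomatine positive control wells for full effect.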
Settings: SKOV3ip1-GFP adhesion/invasion on 3D omental model, fluorescence; series mostly up to 45.8 µM; activity change, negative = inhibition: at the top concentration
How it was run: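 A 3D layer of primary human omental fibroblasts, mesothelial cells, fibronectin and collagen I, grown 48 hr, received SKOV3ip1-GFP cells in serum-free medium plus compounds at 0.36-46 umol/L. After 2 hr RT and 16 hr 37 C, fixed adherent GFP cells were counted; normalized to DMSO and tomatine.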

outcome, inactive:
CCOc1ccc(CNC(=O)c2cnc(SC)nc2CC)cc1, Oc1cccc(Nc2nc(-c3ccccc3)nc3ccccc23)c1, CCCSc1ncc(Cl)c(C(=O)Nc2ccc(CC)cc2)n1, COc1ccc(NC(=O)Cn2c(=O)n(-c3ccccc3)c(=O)c3ccc(C(=O)NCc4ccc5c(c4)OCO5)cc32)cc1, CCOC(=O)c1c(C)[nH]c(C)c1S(=O)(=O)N(C)CC(=O)Nc1cc(Cl)ccc1OC, Cc1cccc(-c2nc3scc(CCNS(=O)(=O)c4ccc5c(c4)OCCO5)n3n2)c1, CCOc1ccc(CNC(=O)Cc2ccc(NC(=O)N3CCSc4ncccc43)cc2)cc1, Cc1ccccc1NC(=O)Cn1c(=O)n(Cc2ccc3c(c2)OCO3)c(=O)c2ccccc21, Cc1c(Cl)cccc1NC(=O)CCS(=O)(=O)c1ccc2c(c1)CC(=O)N2C, O=C(CSc1n[nH]c(-c2ccc(F)cc2)n1)NCCc1ccccc1, COc1ccc(CNC(=O)CCc2c(C)c3cc4c(C)c(C)oc4cc3oc2=O)cc1OC, Cc1cccc(C2CC(=O)Nc3cc4c(cc32)OCO4)c1 (configuration not stated), CCOc1cc(C(=O)NCC(c2ccc(N(C)C)cc2)N2CCOCC2)cc(OCC)c1OCC (configuration not stated)

Activity change, negative = inhibition, inactive:
CCOC(=O)c1ccc(NS(=O)(=O)c2cc3c(cc2C)n(C)c(=O)c(=O)n3C)cc1 29.4%, Cn1c(=O)c2c(SCC(=O)NCC3CCCO3)nc(-c3ccccc3F)nc2n(C)c1=O (configuration not stated) 0.697%, COc1cccc(/C=C(\C#N)c2nc3ccc(C)cc3[nH]2)c1 -15.3%, CCN(CCCNC(=O)c1cc2cc3cc(OC)ccc3nc2s1)c1ccccc1 1.05%, Cc1ccc(CNC(=O)CSc2nc3ccsc3c(=O)n2-c2ccc(C(=O)O)cc2)cc1 0.114%, CC1(C)C(=O)N(CC(=O)Nc2ccc(OC(F)(F)F)cc2)c2ccccc21 1.21%, Cc1cc(NC(=O)c2ccc(Cl)c(Cl)c2)ccc1-c1cc2ccccc2oc1=O -9.71%, COc1cccc(NC(=O)CCNS(=O)(=O)c2ccc3c(c2)CCCC(=O)N3)c1 6.73%, CCOC(=O)C1CCC(CN(Cc2c(Cl)cccc2Cl)S(=O)(=O)c2ccc(F)c(C)c2)CC1 (configuration not stated) 3.03%, O=C(CSC1=Nc2ccccc2C2=NC(CCC(=O)NC3CCCCC3)C(=O)N12)Nc1cccc(Cl)c1 (configuration not stated) -26%, Cc1cccc(-c2nc3c4ccccc4nc(NCCc4ccccc4)n3n2)c1 4.47%, O=S(=O)(NCc1nc2cccnc2n1Cc1ccccc1Cl)c1ccc2c(c1)CCCC2 3.31%, O=C(COCc1cc(-c2ccc(F)cc2)on1)Nc1cc(F)ccc1F -8.69%, CCOc1ccc(NS(=O)(=O)c2ccc3[nH]c4c(c3c2)CCCCC4)cc1 -25.6%, O=c1c(NCc2cccs2)nccn1-c1ccc(F)cc1 3.89%, Cc1nc2ccccc2n1CCc1nc2c3ccccc3nc(SCc3ccc(C#N)cc3)n2n1 -1.64%, COc1cccc(NC(=O)CN(CCc2ccccc2)S(=O)(=O)c2ccc(Cl)cc2)c1 -7.47%, CCOC(=O)CSc1nc2ccc(NC(=O)c3cccc(F)c3)cc2s1 -5.21%, COc1ccc(CNC(=O)c2ccc3c(c2)N(Cc2c(F)cccc2Cl)C(=O)CS3)cc1 -7.2%, O=C(CCn1cccn1)Nc1ccc(Br)cc1F 2.48%, O=C(CCSCc1ccccc1Cl)NCc1ccc(F)cc1Cl 10.3%, COc1ccccc1N1CCN(C(=O)c2c(C)oc3ncn(C)c(=O)c23)CC1 0.205%, Cc1cc2c(n1-c1ccc(C(=O)NCc3ccccc3Cl)cc1)CCCC2 -5.04%, O=C(CN1C(=O)CCn2nc(-c3ccccc3)cc21)NCc1ccc(Cl)cc1 -7.46%, Cc1cccc(CCNC(=O)c2cc3c(=O)n(C)c4ccccc4c3n2C)c1 -27.3%, CCc1cc2c(cc3c(=O)n(CCCC(=O)NCc4cccc(Cl)c4)ncn32)s1 -10.6%, CCN(CC)CCCNC(=O)Cc1csc2nc(-c3ccc(Cl)cc3)cn12 8.29%, CCOc1ccccc1NS(=O)(=O)c1ccc2c(c1)oc(=O)n2C 5.11%, CCOc1ccccc1C(=O)NC1(C(F)(F)F)C(=O)Nc2c1c(=O)[nH]c(=O)n2-c1ccc(F)cc1 (configuration not stated) -2.67%, CSc1ccc(CCNC(=O)CCc2c(C)nc3ncnn3c2C)cc1 10.3%, Cc1ccc(CN2C(=O)c3ccccc3CC2(C)C(=O)NC2CCCCC2)cc1 (configuration not stated) -0.376%, COc1ccc(NC(=O)NC2COc3ccccc3C2)cc1Cl (configuration not stated) -3.4%, Cc1cccc(N2CCN(C(=O)c3noc4c3COc3ccc(C)cc3-4)CC2C)c1 (configuration not stated) -10.9%, Cc1cccc2c1-c1sc(C(=O)N(C)c3cccc(Cl)c3)cc1CO2 -4.02%, COc1ccc(C(CC(=O)Nc2ccc(C(C)=O)cc2)N2Cc3ccccc3C2=O)cc1 (configuration not stated) 43.4%, O=C(c1ccc2c(c1)N(Cc1cccc(F)c1)C(=O)c1ccccc1S2)N1CCCC1 -1.12%, CC(C)c1cnc2c(c1SCC(=O)NCc1ccccc1Cl)c(=O)n(C)c(=O)n2C 48.9%, COC(=O)c1c(-c2cccs2)csc1NC(=O)COc1ccc(C)cc1 1.49%, COc1cccc(OC)c1C(=O)NCCc1csc(-c2ccc(Cl)cc2)n1 0.613%, Cc1ccc(C(=O)Nc2cccc3cccnc23)cc1Cl 10.6%, COc1ccccc1N1CCN(CCN(C(=O)C2CCCCC2)c2ccccn2)CC1 -13.6%, OC[C@H]1O[C@@H](Oc2cc(O)cc(C=Cc3ccc(O)cc3)c2)[C@H](O)[C@@H](O)[C@H]1O 5.04%, COc1ccc(-c2csc(=Nc3ccccc3)n2CCO)cc1F 14.9%, CN1CCN(c2ncc3c(n2)CCN(Cc2ccc(Br)s2)C3)CC1 -10%, CCOc1ccc(NC(=O)COc2ccc(S(=O)(=O)NC3CCCCC3)cc2)cc1 0.627%, CC(C)=CCCC(C)=CCCC(C)=CCCC(C)=CCCC(C)=CCCC(C)=CCCC(C)=CCCC(C)=CCCC(C)=CCO 10%, CCOC(=O)c1c(Nc2ccc(OC)cc2)nnc(-c2ccccc2)c1-c1ccccc1 -2.03%, CCOC(=O)N1CCc2c(sc3c2c(=O)n(-c2ccc(Cl)cc2)c(=O)n3CC(C)C)C1 -7.49%, CCCOc1ccc(-c2nc(SCC(=O)c3ccc(Cl)cc3)n[nH]2)cc1 3.76%, Cn1c(=O)c2sccc2n2c(CCC(=O)NCc3ccc(Cl)cc3)nnc12 -2.13%, CC(=O)c1ccc(N2CCN(C(=O)C3CCN(S(=O)(=O)c4cn(C)cn4)CC3)CC2)cc1 5.88%, Cc1cccn2c(=O)c(C(=O)NCc3cccc(F)c3)cnc12 -5.64%, Cc1ccc(Cl)cc1Nc1nn2c(=O)c3ccc(C(=O)NCc4ccc(F)cc4)cc3nc2s1 4.83%, CCc1ccc(NC(=O)Cn2ccn(-c3ccc(C)c(C)c3)c(=O)c2=O)cc1 -4.44%, Cc1ccc(S(=O)(=O)c2nc(S(=O)(=O)c3ccccc3)sc2NCCCOC(C)C)cc1 16.1%, Fc1ccc(Cl)cc1-c1nc(Nc2ccncc2)c2nccnc2n1 0.412%, COc1ccc(-c2nc3cc(NC(=O)CSc4ccc(C)cc4)ccc3o2)cc1 13.4%, COc1ccc(NC(=O)c2oc3ccccc3c2NC(=O)Cc2coc3c(C)c(C)ccc23)cc1 -22.2%, COc1ccccc1-c1cc(C(=O)NCc2ccccc2)c2c(-c3ccc(C)cc3)[nH]nc2n1 -3.05%, COc1cccc(NC(=O)Cn2cc(C(=O)c3ccc(C)cc3)c(=O)c3cc(OC)ccc32)c1 7.59%, CCN(CC)CCNC(=O)c1c2c(nc3ccccc13)C(=O)N(C1CCCCC1)C2 -5.37%, Cc1ccc(S(=O)(=O)NCCc2cn3ccsc3n2)c(C)c1 -9.4%, CCOc1ccc(NC(=O)/C(C#N)=C\c2ccc(-c3ccc(Cl)cc3)o2)cc1 2.44%, CC(C)c1ccc(OCC(=O)N(Cc2cccs2)C2CCS(=O)(=O)C2)cc1 (configuration not stated) 7.84%, Cc1cc2ccccc2n1CCNC(=O)c1ccc(Br)cc1 -12%, CCc1ccc(NC(=O)CN2C(=O)C3(SCC(=O)N3c3ccc(F)c(F)c3)c3ccccc32)cc1 (configuration not stated) 10.9%, CSc1ccc(-c2nnc(NC(=O)c3ccc4c(c3)OCCO4)o2)cc1 4.48%, Fc1ccccc1N1CCN(c2nc3ccccc3c3nc(-c4ccccc4)nn23)CC1 -3.28%, Cc1ccc(N2CC(C(=O)Nc3ccc(N(C)C)cc3)CC2=O)cc1Cl (configuration not stated) -10.4%, COC(=O)c1ccc(NC(=O)CN2C(=O)CC(c3ccccc3)Sc3ccccc32)cc1 (configuration not stated) 44.4%, C=C(C)CSc1nc(-c2ccccc2)cc(-c2ccc(OC)cc2)c1C#N 1.48%, Cc1cc(C)n(C(C)CC(=O)Nc2ccc(C)c(N(C)C)c2)n1 (configuration not stated) -11.2%, CCC(C(=O)N1CCN(c2ccccc2)CC1)n1c(C)c2cnn(-c3ccccc3)c(=O)c2c1C (configuration not stated) 5.74%, Cc1nnc(N2CCC(C(=O)NCCC(C)C)CC2)c2nn(-c3ccc(Cl)cc3)c(C)c12 -10.3%, CCOc1cc(Cl)c(S(=O)(=O)n2ccnc2)cc1Cl 3.53%, CCN(CC)c1ccc(NC(=O)CCCN2C(=O)C(c3ccccc3)Oc3cccnc32)c(C)c1 (configuration not stated) 7.81%, O=C(NC1CCCC1)c1ccc2c(=O)n(Cc3ccccc3)c(SCc3cccc(F)c3)nc2c1 -0.0042%, CC(=O)Nc1cccc(-n2cc3c(c2-c2ccccc2Cl)c(=O)n(C)c(=O)n3C)c1 1.41%, CC(C)Oc1ccc(C(=O)Nc2c(C(=O)Nc3cccc(F)c3)oc3ccccc23)cc1 -23.1%, COc1ccc(C)cc1Nc1cc(C)nc(C)n1 3.06%, O=C(CN1C(=O)c2cccnc2Oc2ccc(Cl)cc21)Nc1cccc(C(F)(F)F)c1 4.81%, O=C(CCn1ccc2cc(S(=O)(=O)N3CCCC3)ccc21)NCc1ccccc1Br 8.8%, O=C(CSc1nc(-c2ccc(F)cc2)[nH]c1-c1ccc(F)cc1)Nc1ccc2c(c1)OCO2 -1.75%, O=C(Cc1ccc(-c2ccccc2)cc1)NCCS(=O)(=O)N1CCN(c2ccccc2)CC1 -29.7%
